Measured values published in PubChem BioAssay (NCATS).
Where “and” joins values, the source holds several entries; their conditions need not be identical. Identical values can stand only once. The inconclusive results got no clear call from the source; some entries with a clear call stand among them for comparison. A potency beside an inconclusive call is a rough fit, not a confirmed value. Calls of active or inactive are those of the source. Calls follow the shape of the dose curve; as a rule, active = well fitted cell-killing curve with a large enough effect; inconclusive = small, poorly fitted or top-dose-only effect, or effect the other way; inactive = no such curve, though single readings can be large or run the other way.

How the values were obtained:
[1] = Viability qHTS for spleen associated tyrosine kinase inhibitor (SYKi) naive MV4-11 cells (AID 1963823); conditions: MV4-11 AML viability, CellTiter-Glo luminescence, 72 h; series mostly up to 45 µM; also: nearly all actives have a fitted effect of over 40% in size
Procedure, shortened: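 qHTS, SYK inhibitor-naive MV4-11; 500 cells/well; 72 hr compound exposure, 37 C; CellTiter-Glo added, 10 min RT; luminescence read.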

[2] = Viability qHTS for spleen associated tyrosine kinase inhibitor (SYKi) drug resistant MV4-11 cells (AID 1963824); also: nearly all actives have a fitted effect of over 35% in size
Procedure, shortened: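 SYK-inhibitor-resistant MV4-11 AML cells were seeded at 500 per well onto compound and cultured 72 hours (37 °C, 5% CO2). CellTiter-Glo was then added, and after 10 min at room temperature, luminescence gave viability.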
Potency is read from the fitted curve at half-maximal effect; tags tell the direction and shape of the fitted curve.

SMILES | Potency [1] | Potency [2]
Cc1cc2c(c(=O)[nH]1)OC(C(O)CC(C)C)O2 (stereo not given) | inconclusive: 0.0326 µM [cytotoxic, full curve, poor fit] | inconclusive: 0.0065 µM [cytotoxic, full curve, poor fit]
C=C(CO[C@@H]1O[C@H](CO[C@@H]2OC[C@](O)(CO)[C@H]2O)[C@@H](O)[C@H](O)[C@H]1O)C1Cc2cc(C(C)=O)ccc2O1 (stereo not given in full) | inconclusive: 1.12 µM [cytotoxic, full curve, poor fit] | inactive
COc1ccc(-n2[nH]c(=O)c3[nH]c4cc(Cl)ccc4c(=O)c3c2=O)c(C)c1 | inconclusive: 29.1 µM [cytotoxic, single point] | inconclusive: 18.4 µM [cytotoxic, single point]
Nc1ccc(S(=O)(=O)c2ccc(N)cc2)cc1 | inactive | inactive
O=C(Cc1ccc(-c2ccccc2)cc1)NC1CCC1 | inactive | inactive
O=C(OC[C@H]1O[C@@H](Oc2ccccc2COC(=O)C2(O)C=CCCC2O)[C@H](O)[C@@H](O)[C@@H]1O)c1ccccc1 (stereo not given in full) | inactive | inactive
Cc1nc(NC(=O)N2CCCC2C(N)=O)sc1-c1csc(C(C)(C)C)n1 (stereo not given) | inconclusive: 13 µM [cytotoxic, partial curve] | inconclusive: 16.4 µM [cytotoxic, partial curve]
CC(C)=CCC[C@](C)(O[C@@H]1O[C@H](CO[C@@H]2O[C@@H](CO)[C@H](O)[C@H]2O)[C@@H](O)[C@H](O)[C@H]1O)[C@H]1CC[C@]2(C)[C@@H]1[C@H](O)C[C@@H]1[C@@]3(C)CC[C@H](O[C@@H]4O[C@H](CO)[C@@H](O)[C@H](O)[C@H]4O[C@@H]4O[C@H](CO)[C@@H](O)[C@H](O)[C@H]4O)C(C)(C)[C@@H]3CC[C@]12C | inactive | inactive
CCCCCOc1ccc(-c2ccc(-c3ccc(C(=O)N[C@H]4C[C@@H](O)[C@@H](O)NC(=O)[C@@H]5[C@@H](O)[C@@H](C)CN5C(=O)[C@H]([C@@H](C)O)NC(=O)[C@H]([C@H](O)[C@@H](O)c5ccc(O)cc5)NC(=O)[C@@H]5C[C@@H](O)CN5C(=O)[C@H]([C@@H](C)O)NC4=O)cc3)cc2)cc1 | inconclusive: 10 µM [cytotoxic, single point] | inconclusive: 14.2 µM [cytotoxic, single point]
CC1(C)CC[C@]2(C(=O)O)CC[C@]3(C)C(=CCC4[C@@]5(C)C[C@@H](O)[C@H](O)[C@@](C)(CO)C5[C@H](O)C[C@]43C)[C@@H]2C1 (stereo not given in full) | inconclusive: 14.2 µM [cytotoxic, single point] | inconclusive: 14.2 µM [cytotoxic, single point]
CC1=C2C(=O)C=C(CO[C@@H]3O[C@H](CO)[C@@H](O)[C@H](O)[C@H]3O)[C@@H]2[C@H]2OC(=O)[C@H](C)[C@@H]2CC1 | inactive | inactive
CCOc1ccc(NC(=S)N2CCC(C(O)(c3ccccc3)c3ccccc3)CC2)cc1 | inconclusive: 20.6 µM [cytotoxic, single point] | inconclusive: 14.6 µM [cytotoxic, partial curve]
Nc1ccc(S(=O)(=O)NCc2ccccc2)cc1 | inconclusive: 33.5 µM [cytotoxic, single point] | inactive
C=CC1(C)C=C2C(O)CC3C(C)(C(=O)O)CCCC3(C)C2CC1 (stereo not given) | inconclusive: 5.7 µM [cytotoxic, partial curve, poor fit] | inconclusive: 7.18 µM [cytotoxic, partial curve, poor fit]
CC(=O)OCC(=O)[C@@]1(O)[C@H](C)C[C@H]2[C@@H]3CCC4=CC(=O)C=C[C@]4(C)[C@@]3(F)[C@@H](O)C[C@@]21C | inconclusive: 15 µM [cytotoxic, partial curve, poor fit] and inconclusive: 5.17 µM [cytotoxic, partial curve, poor fit] | inconclusive: 9.44 µM [cytotoxic, partial curve, poor fit] and inconclusive: 23.1 µM [cytotoxic, partial curve, poor fit]
C/C=C/C=C/c1cc2c(C=O)c(O)c(CC=C(C)C)cc2o1 | inconclusive: 23.1 µM [cytotoxic, partial curve] | active: 18.4 µM
O=C(O)CC/C=C\C[C@H]1CO[C@@H](c2ccccc2Cl)O[C@H]1c1ccccc1O | inconclusive: 6.51 µM [cytotoxic, partial curve, poor fit] | inconclusive: 0.411 µM [cytotoxic, single point]
CCC(=O)Oc1ccc2c(c1)CC[C@@H]1[C@@H]2CC[C@@]2(C)[C@H]1C[C@@H](OC(=O)CC)[C@@H]2OC(=O)CC | inconclusive: 16.8 µM [cytotoxic, partial curve] | inconclusive: 29.9 µM [cytotoxic, single point]
O=C(NCc1ccccc1-c1ccccc1C(=O)NCCc1ccccn1)OCc1ccccc1 | inconclusive: 18.4 µM [cytotoxic, partial curve] | inconclusive: 16.4 µM [cytotoxic, partial curve, poor fit]
CC1(C)CC[C@]2(C(=O)O)CC[C@]3(C)C(=CCC4[C@@]5(C)C[C@@H](O)[C@H](O)C(C)(C)C5CC[C@]43C)C2C1 (stereo not given in full) | inconclusive: 6.32 µM [cytotoxic, partial curve] | inconclusive: 7.09 µM [cytotoxic, partial curve]
C[C@@]1(F)[C@H](O)[C@@H](CO)O[C@H]1n1ccc(N)nc1=O | inactive | inconclusive: 20.6 µM [cytotoxic, partial curve, poor fit]
CC(C)(O)C1CC(=O)C2(C)C(CCC3(C)C(c4ccoc4)OC(=O)C4OC432)C12CCC(=O)OC2 (stereo not given) | inconclusive: 8.93 µM [cytotoxic, partial curve] | inconclusive: 8.93 µM [cytotoxic, partial curve]
C/C(=C\CCC1(C)C2CCC(C2)C1(C)O)C(=O)O (stereo not given) | inconclusive: 9.2 µM [cytotoxic, partial curve] | inconclusive: 20.6 µM [cytotoxic, partial curve]
Cc1c(Cl)cccc1S(=O)(=O)Nc1nc(CCN2CCOCC2=O)cs1 | inconclusive: 33.2 µM [cytotoxic, single point] | inconclusive: 23.5 µM [cytotoxic, partial curve, poor fit]
CC1=CC23[C@H](C=C(C(=O)O)[C@@H]2COC(=O)[C@]3(O)CO)[C@@H]1C (stereo not given in full) | inconclusive: 6.51 µM [rising, single point] | inconclusive: 2.31 µM [cytotoxic, partial curve, poor fit]
Cc1c(N2C(=O)c3ccc(C(=O)O)cc3C2=O)c(=O)n(-c2ccccc2)n1C | inconclusive: 29.1 µM [cytotoxic, single point] | inconclusive: 16.4 µM [cytotoxic, single point]
C#CCNCc1cc2cc(OCc3ccccc3)ccc2[nH]1 | inconclusive: 1.84 µM [cytotoxic, full curve] | inconclusive: 3.66 µM [cytotoxic, full curve, poor fit]
CC(C)CC[C@@H](O)[C@](C)(O)[C@H]1CC[C@@]2(O)C3=CC(=O)[C@@H]4C[C@@H](O)[C@@H](O)C[C@]4(C)[C@H]3CC[C@]12C | inactive | inactive
N#Cc1cc(C2=Nc3ccc(Br)cc3NC(=O)C2)ccn1 | inconclusive: 6.51 µM [cytotoxic, partial curve] | inconclusive: 9.2 µM [cytotoxic, partial curve]
O=C(O)c1cc(O[C@@H]2O[C@H](CO[C@@H]3OC[C@@H](O)[C@H](O)[C@H]3O)[C@@H](O)[C@H](O)[C@H]2O)c2ccccc2c1O | inactive | inconclusive: 1.42 µM [cytotoxic, full curve, poor fit]
